Data as given in PubChem BioAssay AID1487 (National Center for Advancing Translational Sciences (NCATS), 2009).
About 25 (0.01%) of roughly 200,000 compounds were called active. Another 23% or so got no clear call; they are omitted. Calls come from the whole dose curve; as a rule, active = well fitted inhibition curve with a large enough effect in the signal ratio, with a control signal flat (not every such curve was filed as active); inconclusive = small, poorly fitted or top-dose-only effect, or effect the other way, or a change in a side signal; inactive = flat fitted curve, though single readings scatter; the % refers to the signal ratio. This is a selection; strong and weak results do not stand in their true shares. Some compounds were tested as several samples or in several runs, with calls that do not always agree.

Experiment: qHTS Assay for Modulators of Lamin A Splicing
Settings: HeLa LMNA splicing GFP/RFP minigene ratio, 48 h; series mostly up to 46.1 µM; ratio change, negative = inhibition: at the top concentration
Text: NCGC Assay Overview: Hutchinson-Gilford Progeria Syndrome (HGPS) is a pediatric premature aging disease caused by a spontaneous mutation in the lamin A/C (LMNA) gene. The mutation activates a cryptic splice site in the LMNA pre-mRNA which results in production of a pre-lamin A protein that cannot be processed properly. The mutant protein accumulates in the nucleus and negatively affects numerous cellular functions. Correction of the splicing defect in HGPS patient cells using a targeted oligonucleotide (exo11) leads to reversal of the cellular disease phenotypes. To identify small molecule modulators of aberrant LMNA splicing, a homogenous assay was constructed in HeLa cells that used a GFP containing minigene to report on correction of aberrant splicing in lamin A and a RFP (DsRed2) to report on cell viability, uniformity and nonspecific effects on the assay signal. This assay was adapted to laser-scanning microplate cytometry (Acumen, TTP Labtech) where miniaturization of the assay to a 1,536-well plate format was possible. References: Bowen, W. P.; Wylie, P. G. Application of Laser-Scanning Fluorescence Microplate Cytometry in High Content Screening. Assay Drug Dev Technol 2006;4:209-221. Scaffidi P, Misteli T. Reversal of the cellular phenotype in the premature aging disease Hutchinson-Gilford progeria syndrome. Nat.
NCGC Assay Protocol Summary: Reagents/Controls: Stable clones expressing DsRed2 and lamin A-EGFP were generated by Cell and Molecular Technologies in S3 HeLa cells. HeLa cells were prepared for the assay when they were 70-90% confluent. The cells were counted and resuspended in Opti-MEM I (no phenol red; Gibco), 2% FBS, 1% penicillin/ streptomycin (Gibco) at concentration of 120 cells/uL concentration. The suspension was passed through a Falcon basket filter with pore size 40um (Beckton Dickson). Control titrations: column […] 1536-well plate contained a sixteen point titration (1:2 dilutions) in duplicate of ancitabine (Sigma: A8598) beginning at 40 uM final concentration. Column 2 contained a sixteen point titration (1:2 dilutions) of cycloheximide beginning at 1.4 mM final concentration. Column 3 contained ancitabine at 40 uM and column 4 contained was the vehicle control (0.5% DMSO final concentration). Assay Steps: 5 uL of HeLa cells were plated in Aurora LoBase black clear bottom (cyclic-olefin polymer) 1536-well plates at a final density of 600 cells/well. Controls and library compounds were added with a 1536-well pin array using the Kalypsys pin-tool. The plates were then incubated for 48 hrs in a cell-culture incubator (37 °C; 5% CO2, 98% humidity). Following incubation the plates were read on the Acumen Explorer using the 488 nm laser. Data was collected on objects between 10 and 100 um in size. Cell objects were defined by a 15 um width x 10 um depth filter. The ratio of the total object intensity in PMT1 (500-530 nm emission; GFP) over PMT3 (575-640 nm emission; RFP) was calculated for analysis. Keywords: NIH Roadmap, MLSCN, MLI, MLSMR, qHTS, NCGC, lamin A, Progeria, RNA splicing.
% is set by controls: 0 for no effect and ±100 for the full control effect; potency is the fitted concentration of half-maximal effect.

Row | Structure (SMILES) | ratio change, negative = inhibition | Potency
1 | CN1CCc2c(c3ccccc3n2Cc2ccccc2)C1 | inactive: -0.39% | 
2 | OCCOCCN1CCN(C2=Nc3ccccc3Sc3ccccc32)CC1 | inactive: -13.4% | 
3 | CC1(C)S[C@@H]2[C@H](NC(=O)[C@H](N)c3ccc(O)cc3)C(=O)N2[C@H]1C(=O)O | inactive: 3.69% | 
4 | O=C(O)[C@@H](O)c1ccccc1 | inactive: 2.4% [at 46 µM] | 
5 | NC(=O)c1cc[n+](CC2=C(C(=O)O)N3C(=O)[C@@H](NC(=O)[C@@H](c4ccccc4)S(=O)(=O)[O-])[C@H]3SC2)cc1 | inactive: -12.7% | 
6 | CC[N+](C)(C)Cc1ccccc1Br |  | inactive
7 | Cc1oncc1C(=O)Nc1ccc(C(F)(F)F)cc1 | inactive: -8.66% | 
8 | CC(CCc1ccccc1)NCC(O)c1ccc(O)c(C(N)=O)c1 (stereo not given) | inactive: -1.16% | 
9 | Cc1cn(C2C=CC(CO)O2)c(=O)[nH]c1=O (stereo not given) | inactive: -5.56% | 
10 | Cc1cc(C(C)(C)C)c(O)c(C)c1CC1=NCCN1 | inactive: -7.47% | 
11 | CN1CCN(c2nc(-c3cccnc3)nc3ccccc23)CC1 | inactive: -11.6% | 
12 | COc1ccc2c(c1OC)C(=O)OC2C1c2c(cc3c(c2OC)OCO3)CCN1C (stereo not given) | inactive: -0.345% | 
13 | CCCN1C[C@H](CSC)C[C@@H]2c3cccc4[nH]cc(c34)C[C@H]21 | inactive: -13.6% | 
14 | Cc1ccc(CNC(=O)C2(c3cccs3)CCOCC2)cc1 | inactive: -2.83% | 
15 | CC1=C(/C=C/C(C)=C/C=C/C(C)=C/C(=O)O)C(C)(C)CCC1 | inactive: -15.1% | 
16 | CCO/C([O-])=N/c1c[n+](N2CCOCC2)no1 | inactive: -4.41% | 
17 | CCCCCCCCCCCCCCCC(O)C(N)CO (stereo not given) | inactive: 8.18% | 
18 | CN1C(=O)C(O)(CC(=O)c2ccccc2O)c2cc(Br)ccc21 (stereo not given) | inactive: -2.4% [at 46 µM] | 
19 | N[C@@H]1CONC1=O |  | inactive
20 | COc1cc2nc(N(C)CCCNC(=O)C3CCCO3)nc(N)c2cc1OC (stereo not given) | inactive: 0.736% [at 46 µM] | 
21 | Nc1ncnc2c1ncn2[C@@H]1O[C@H](CO)[C@@H](O)[C@H]1O |  | inactive
22 | CCC[C@@H]1C[C@@H](C(=O)N[C@H]([C@@H](C)O)[C@H]2O[C@H](SC)[C@H](O)[C@@H](O)C2O)N(C)C1 (stereo not given in full) | inactive: -1.53% | 
23 | CC[C@H](NC(C)C)[C@H](O)c1ccc(O)c(O)c1 | inactive: 9.73% | 
24 | COc1cc(C2Oc3cc(C4Oc5cc(O)cc(O)c5C(=O)C4O)ccc3OC2CO)ccc1O (stereo not given) | inactive: 5.19% | 
25 | NCCCCCCNS(=O)(=O)c1cccc2c(Cl)cccc12 | inactive: 6.01% | 
26 | CN1C2CCC1CC(OC(c1ccccc1)c1ccccc1)C2 (stereo not given) | inactive: -13.8% [at 46 µM] | 
27 | CN1CCc2cccc3c2[C@@H]1Cc1ccc(O)c(O)c1-3 | inactive: -12.8% | 
28 | CN(C)CCOC(c1ccccc1)c1ccccc1 |  | inactive

Row | Structure (SMILES) | ratio change, negative = inhibition | Potency
29 | CC(C)NC[C@@H](O)c1ccc(O)c(O)c1 | inactive: 11.8% | 
30 | C[C@@H](C(=O)O)c1cccc(C(=O)c2ccccc2)c1 | inactive: -7.85% | 
31 | NS(=O)(=O)c1cc2c(cc1Cl)NC=NS2(=O)=O | inactive: 9.85% | 
32 | NC(N)=NC(=O)Cc1c(Cl)cccc1Cl | inactive: -5.06% | 
33 | NCCc1cnc[nH]1 |  | inactive
34 | CCN(CC)CCNC(=O)c1cc(Cl)c(N)cc1OC |  | inactive
35 | COC(=O)C1=C(C)N(Cc2ccco2)C(=O)N[C@H]1c1cccc(C(F)(F)F)c1 | inactive: 3.52% | 
36 | NC/C=C/C(=O)O |  | inactive
37 | NC(=O)N/N=C\c1ccc([N+](=O)[O-])o1 | inactive: -4.9% | 
38 | Cc1cc(NC(=O)CCCN2C(=O)/C(=C/c3cccs3)SC2=S)no1 | inactive: -16.7% | 
39 | CC(C)[N+](C)(CCOC(=O)C1c2ccccc2Oc2ccccc21)C(C)C | inactive: -2.35% | 
40 | Cn1c(=O)[nH]c2ncn(C)c2c1=O | inactive: -4.81% | 
41 | CN/C(=C\[N+](=O)[O-])NCCSCc1ccc(CN(C)C)o1 |  | inactive
42 | O=C1O/C(=C/C(=O)N2CCOCC2)c2ccccc21 | inactive: -11.6% | 
43 | CCc1nc(N)nc(N)c1-c1ccc(Cl)cc1 | inactive: -27.7% | 
44 | CC(C)NCC(O)COc1ccc(CCOCC2CC2)cc1 (stereo not given) |  | inactive
45 | C(=C\c1ccccc1)/CN1CCN(C(c2ccccc2)c2ccccc2)CC1 | inactive: 1.11% | 
46 | CCN(CC)C(=O)/C(=C\c1ccc2c(c1)OCO2)NC(=O)c1ccc(Br)cc1 | inactive: -6.03% | 
47 | COC(=O)/C(=C\c1c[nH]c2ccccc12)NC(C)=O | inactive: -6.85% | 
48 | COc1ccc2c(c1)c(CC(=O)O)c(C)n2C(=O)c1ccc(Cl)cc1 | inactive: -15% | 
49 | CC(C)C[C@H](NC(=O)[C@H](O)[C@H](N)Cc1ccccc1)C(=O)O | inactive: 4.27% | 
50 | COCCNc1ncnc2ccc(-c3c(C)noc3C)cc12 |  | active: 2.82 µM
51 | COc1ccc2c(c1OC)C(=O)O[C@@H]2[C@H]1c2c(cc3c(c2OC)OCO3)CCN1C | inactive: 2.49% | 
52 | Cc1cccc2sc(NNC(=O)c3ccc(S(=O)(=O)N4CC(C)CC(C)C4)cc3)nc12 (stereo not given) |  | active: 17.8 µM
53 | CN1CCN(CCCN2c3ccccc3Sc3ccc(C(F)(F)F)cc32)CC1 | inactive: -10.9% [at 46 µM] | 
54 | Nc1ccn([C@H]2CC[C@@H](CO)O2)c(=O)n1 | inactive: -26.1% | 
55 | COc1ccccc1-c1nc(-c2ccc(Br)o2)no1 | inactive: -2.38% | 
